# Results taken from PMC5892938.
# This is one part of the list. The source does not settle which construct or isoform was used.
# Target: GST-SBP-ILF3 (Homo sapiens) (UniProt Q12906)
# Experiment: targeted RNA Bind-n-Seq
# Details: RBNS binding buffer: 25 mM Tris pH 7.5, 150 mM KCl, 3 mM MgCl2, 0.1% Tween, 0.5 mg/mL BSA, 1 mM DTT; 27 nM protein, 750 pM RNA pool; temperature not stated; high values mean tight binding; sequences stand for … in GGGUAAAAGCGAGGUGAA…CGGGACAAGUAUUAUGGG
row,Sequence,binding signal (log2 fold change)
1,UUCUCUUCUCCUCCAUAGGAGGGGGAGGGA [ctspaired],-0.391
2,UUUUUUUUUUGAGACGGAUUCUGUCUCCUG [tttttgagapaired],0.134
3,UUUUUUUUUUGAGACGGAAACUGUCUCCUG [tttttgagapaired],0.891
4,UUUUUUUUUUGAGACGGUUCCCGUCUCCAG [tttttgagapaired],0.823
5,UUUUUUUUUUGAGACGGGGUCUGUCUCCAG [tttttgagapaired],0.874
6,UUUUUUUUUUGAGACUGAUCCAGUCUCCUG [tttttgagapaired],0.405
7,UUUUUUUUUUGAGAGCGAGACGUUCUCCAG [tttttgagapaired],0.228
8,GUGUGUGGUGUUGGCUUCUAACACCGCACG [gtspaired],-0.708
9,GUGUGGUGUGUUGGCGCCUAACACACUAUA [gtspaired],-0.503
10,UUUUUUUUUUGAGAGUGUACCACUCUCCAG [tttttgagapaired],0.191
11,GUGUUGUGUGUUGGCUUCUAACACACAGCA [gtspaired],-0.694
12,UUUUUUUUUUGAGAGUGUAGCAUUCUCCUA [tttttgagapaired],0.141
13,UUUUUUUUUUGAGAGGGUAGCCCUUUCCAG [tttttgagapaired],0.38
14,UUUUUUUUUUGAGAACGGCGCGUUCUCCAG [tttttgagapaired],0.439
15,UUUUUUUUUUGAGACGGACACCGUCUUCUA [tttttgagapaired],-0.09
16,GUGUUGUGUGUUGGUCCCUAACACACAGCA [gtspaired],-0.471
17,GUUGUGUGUGUUGGCACCUAACACACGCGA [gtspaired],-0.62
18,GUUGGUGGUGUUGGAUUCUAACACCAUCAA [gtspaired],-0.442
19,UUUUUUUUUUGAGACUGCGACAGUCUUCUG [tttttgagapaired],0.625
20,GGUGUGUGUGUUGGUCCCUAACACACGCGC [gtspaired],-0.421
21,UUUUUUUUUUGAGACGGAAACUGUCUCCAG [tttttgagapaired],0.772
22,UUUUUUUUUUGAGACUGGAGCAGUUUCCUA [tttttgagapaired],0.59
23,GUGGUGUGUGUUGGUAUCUAACACAUACCG [gtspaired],-0.218
24,UUUUUUUUUUGAGACCGCUGCGGUCUCCUA [tttttgagapaired],0.484
25,GUGUGGUGUGUUGGCGUCUAACACACCAUA [gtspaired],-0.149
26,UUUUUUUUUUGAGACUGGAUCAGUCUCCAG [tttttgagapaired],0.0778

row,Sequence,binding signal (log2 fold change)
1,UUUUUUUUUUGAGAUGGGAACCAUCUCCUG [tttttgagapaired],0.41
2,UUUUUUUUUUGAGAGGGGAUCCCUCUCCGG [tttttgagapaired],0.277
3,UUUUUUUUUUGAGACGGAUUCUGUCUUCUA [tttttgagapaired],-0.242
4,UUUUUUUUUUGAGACGGCUACCGUUUCCAG [tttttgagapaired],0.642
5,UUUUUUUUUUGAGAUGGGGUCCAUUUCCGG [tttttgagapaired],0.751
6,UUUUUUUUUUGAGAGGGGGUCCCUCUCCAG [tttttgagapaired],0.814
7,UUUUUUUUUUGAGAUGGACGCUAUCUCCGG [tttttgagapaired],0.568
8,UUUUUUUUUUGAGAACGGAACGUUCUCCGG [tttttgagapaired],0.0282
9,UUUUUUUUUUGAGAUGGUUGCCAUCUCCUA [tttttgagapaired],0.327
10,UUUUUUUUUUGAGAACGAGGCGUUCUCCAG [tttttgagapaired],0.127
11,UUUUUUUUUUGAGAGCGUAUCGUUCUCCUA [tttttgagapaired],0.117
12,UUUUUUUUUUGAGACUGAACCAGUCUCCUA [tttttgagapaired],0.000607
13,GUGUGGUGUGUUGGAGUCUAACACAUCGCA [gtspaired],-0.771
14,UUUUUUUUUUGAGAGGGCAUCCCUCUCCUA [tttttgagapaired],0.605
15,UUUUUUUUUUGAGAACGUGGCGUUCUCCAG [tttttgagapaired],0.522
16,UUUUUUUUUUGAGAGCGUGACGUUCUCCUA [tttttgagapaired],0.453
17,UUUUUUUUUUGAGACCGAGACGGUUUCCAG [tttttgagapaired],0.527
18,UUUUUUUUUUGAGAGGGCGACCCUCUUCUG [tttttgagapaired],0.572
19,UUCUCUUCUCCUCCGCUGGAGGGGGAGAGA [ctspaired],-0.54
20,GUGUGUGGUGUUGGAACCUAACACCGCAUA [gtspaired],-0.386
21,UUUUUUUUUUGAGAUGGUUGCCAUCUCCUG [tttttgagapaired],0.469
22,GUGUGUUGUGUUGGCGUCUAACACAACGCG [gtspaired],-0.469
23,GGUUGGUGUGUUGGAGCCUAACACACUAAC [gtspaired],-0.122
24,UUUUUUUUUUGAGAGGGAACCCCUCUCCUG [tttttgagapaired],-0.0733
25,UUUUUUUUUUGAGACUGAAACAGUCUUCUA [tttttgagapaired],-0.491
26,GGUUGGUGUGUUGGCCUCUAACACACCGAC [gtspaired],-0.49

row,Sequence,binding signal (log2 fold change)
1,GUGUGUUGUGUUGGUACCUAACACAACGCA [gtspaired],-0.39
2,UUUUUUUUUUGAGAUCGUCACGAUCUCCGG [tttttgagapaired],0.281
3,GGUUGUGGUGUUGGCCUCUAACACCACGAC [gtspaired],-0.749
4,UUUUUUUUUUGAGACUGACACAGUCUCCUA [tttttgagapaired],0.234
5,UUUUUUUUUUGAGACCGUAUCGGUCUCCUA [tttttgagapaired],0.634
6,UUCUCUUCUCCUCCAGGGGAGGGGAAGGGA [ctspaired],-0.284
7,GUUGUGUGUGUUGGCCCCUAACACACGCAA [gtspaired],-0.581
8,UUUUUUUUUUGAGAUGGCUGCCAUCUCCGG [tttttgagapaired],0.62
9,UUUUUUUUUUGAGAUGGGCACUAUCUCCAG [tttttgagapaired],0.545
10,UUUUUUUUUUGAGAUGGAAUCCAUCUCCUA [tttttgagapaired],-0.337
11,UUUUUUUUUUGAGAUGGGUACUAUCUUCUA [tttttgagapaired],0.186
12,UUUUUUUUUUGAGAUGGAUUCCAUCUUCUA [tttttgagapaired],-0.226
13,GUUGUGUGUGUUGGCAUCUAACACACACAG [gtspaired],-0.38
14,UUUUUUUUUUGAGACGGGCCCCGUCUCCAG [tttttgagapaired],0.67
15,GUGGUGUGUGUUGGUCCCUAACACACACCG [gtspaired],-0.21
16,UUUUUUUUUUGAGACUGCUUCAGUCUCCAG [tttttgagapaired],0.345
17,UUUUUUUUUUGAGACGGAAACCGUCUCCAG [tttttgagapaired],0.212
18,UUUUUUUUUUGAGACUGAGCCAGUCUCCUG [tttttgagapaired],0.316
19,UUUUUUUUUUGAGACGGAAUCCGUCUCCAG [tttttgagapaired],0.13
20,UUUUUUUUUUGAGACGGGACCCGUCUCCUA [tttttgagapaired],0.542
21,GUGUUGUGUGUUGGCUCCUAACACACAGCA [gtspaired],-0.26
22,UUUUUUUUUUGAGACUGAUACAGUCUCCGG [tttttgagapaired],0.322
23,UUUUUUUUUUGAGACUGGCGCAGUCUCCGG [tttttgagapaired],0.585
24,UUCUCUUCUCCUCCGCGGGAGGGGGAGAGA [ctspaired],-0.653
25,UUUUUUUUUUGAGACGGGAUCUGUCUUCUG [tttttgagapaired],0.575
26,GUGUGUUGUGUUGGAACCUAACACAGCGCG [gtspaired],-0.805

row,Sequence,binding signal (log2 fold change)
1,UUUUUUUUUUGAGACUGAAUCAGUUUCCUA [tttttgagapaired],0.265
2,UUUUUUUUUUGAGAUGGCAGCCAUCUCCUA [tttttgagapaired],0.472
3,GUGUGUUGUGUUGGCGCCUAACACAGCGCG [gtspaired],-0.391
4,UUUUUUUUUUGAGAGGGGCUCCCUUUCCGG [tttttgagapaired],0.584
5,UUUUUUUUUUGAGACUGAGGCAGUCUCCUA [tttttgagapaired],0.333
6,UUUUUUUUUUGAGAUCGGAACGAUUUCCUA [tttttgagapaired],0.00384
7,UUUUUUUUUUGAGAUGGAGGCCAUCUCCAG [tttttgagapaired],0.444
8,GGUUGGUGUGUUGGCGUCUAACACACCAGC [gtspaired],-0.734
9,UUUUUUUUUUGAGAGCGGGCCGUUCUCCGG [tttttgagapaired],0.618
10,UUUUUUUUUUGAGAGGGGUACCCUCUUCUA [tttttgagapaired],0.599
11,GGUGUUGGUGUUGGAUCCUAACACCGAUAC [gtspaired],-0.336
12,UUUUUUUUUUGAGACUGGGACAGUUUCCUG [tttttgagapaired],0.925
13,UUUUUUUUUUGAGAACGAUUCGUUCUCCAG [tttttgagapaired],-0.34
14,UUUUUUUUUUGAGACUGUGUCAGUCUUCUA [tttttgagapaired],0.572
15,GUGUUGUGUGUUGGUUCCUAACACACAGCG [gtspaired],-0.559
16,GGUUGUGGUGUUGGUUCCUAACACCGCGAC [gtspaired],-0.709
17,GUGUGUUGUGUUGGAACCUAACACAGCGCA [gtspaired],-0.546
18,UUUUUUUUUUGAGAUGGGAGCCAUCUCCAG [tttttgagapaired],0.32
19,UUUUUUUUUUGAGAGGGGAUCCCUUUCCAG [tttttgagapaired],0.295
20,UUUUUUUUUUGAGACCGGAUCGGUCUCCGG [tttttgagapaired],0.307
21,GGUGGUUGUGUUGGUGCCUAACACAAUCGC [gtspaired],-0.362
22,UUUUUUUUUUGAGACCGCAUCGGUCUUCUG [tttttgagapaired],0.485
23,UUUUUUUUUUGAGACUGGGACAGUUUCCUA [tttttgagapaired],0.625
24,UUUUUUUUUUGAGAACGACGCGUUCUCCUA [tttttgagapaired],0.139
